± gives the standard deviation of the averaged measurements. The full ranking holds about 33,000 sequences; the median of “E-score (dimensionless, -0.5 to 0.5)” is about -0.049, and the highest 2% start at about 0.37. This is one part of the list.
Test system: T1, PmTbr T-box DNA-binding domain (GST fusion)
T1 sequence: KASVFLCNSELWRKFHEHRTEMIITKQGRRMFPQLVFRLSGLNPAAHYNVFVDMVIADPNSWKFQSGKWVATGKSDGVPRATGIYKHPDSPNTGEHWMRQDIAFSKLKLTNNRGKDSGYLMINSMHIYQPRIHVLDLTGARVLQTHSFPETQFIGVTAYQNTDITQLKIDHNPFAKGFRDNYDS
Experiment: PBM E-score of 8-mer (E-score (dimensionless, -0.5 to 0.5)); Tbr is Tbrain of the sea star Patiria miniata (Pm) or the sea urchin Strongylocentrotus purpuratus (Sp); higher = stronger binding preference; most listed sequences are background and not binding sites
Settings: the construct has about 5 more residues each side
Outline: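 GST-fused Tbr T-box DNA-binding domains (the whole T-box plus about five flanking residues) were expressed in BL21 E. coli at 20 °C and purified by glutathione affinity chromatography. Universal Agilent oligonucleotide arrays were made double-stranded by primer extension, incubated with 200 nM protein in PBS (pH 7.5), then scanned and quantified. Every ungapped 8-mer was scored from probe intensities. The Universal PBM Analysis Suite gave each word an enrichment E-score, averaged over duplicate arrays.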

Sequence	PBM E-score of 8-mer
CGCGGAGC	-0.021 ± 0.077
CATAGTGC	0.0881 ± 0.024
GGTTTGAA	-0.124 ± 0.029
AAGTTAGC	0.192 ± 0.011
ATATTCCG	-0.0495 ± 0.02
TGTGCACA	0.0718 ± 0.017
GCAGACGA	0.000765 ± 0.022
CCGTTAGA	0.0408 ± 0.021
CAACGTAG	-0.201 ± 0.0054
ATACGACG	0.0115 ± 0.015
CGCTCTTA	-0.285 ± 0.014
CTGACCCA	-0.218 ± 0.038
GCGGCACC	0.319 ± 0.025
GCTGCGAC	0.137 ± 0.0089
GCAAGTTA	-0.0125 ± 0.0034
CCCGTTGC	-0.144 ± 0.0081
ACAAACGG	-0.0712 ± 0.015
AGAGCTCC	-0.301 ± 0.036
GTAGGCTA	-0.101 ± 0.08
ATACAACA	0.0543 ± 0.036
ACTCACTA	0.144 ± 0.02
ATCGGCAG	-0.144 ± 0.013
CTTTAGCC	-0.123 ± 0.012
GGCCCCTA	-0.211 ± 0.011
CTGTGAAC	0.356 ± 0.0043

Sequence	PBM E-score of 8-mer
CGTTCGTC	-0.065 ± 0.017
ATAGTGGA	-0.00882 ± 0.0057
CATCGTGA	0.0195 ± 0.014
ATCAATAC	-0.0107 ± 0.0085
GAGATGCC	-0.112 ± 0.029
GACAACGA	0.0183 ± 0.0056
CCCTTATC	-0.014 ± 0.043
TAGGTCGA	-0.111 ± 0.085
ATGAAAAA	-0.115 ± 0.075
AAGGACGC	-0.323 ± 0.036
AGTTTCAG	-0.101 ± 0.063
ACCGGTCT	-0.234 ± 0.014
ACGGCTAC	-0.0169 ± 0.0055
CAGTTAAG	-0.0266 ± 0.09
CCGGACCC	0.0429 ± 0.0073
AAGAGTAG	-0.1 ± 0.014
ACATTCGC	0.267 ± 0.042
AAGCGCGT	0.133 ± 0.017
CGTGAAGC	0.231 ± 0.0064
TGAGGAAA	0.0379 ± 0.024
ACCAACGT	-0.094 ± 0.013
AAGTGGGT	0.0533 ± 0.0069
AGCCTAAA	-0.0212 ± 0.042
ATCAGGTA	-0.0936 ± 0.033
CCCTGTCG	-0.0758 ± 0.019

Sequence	PBM E-score of 8-mer
AAGTGGAC	-0.106 ± 0.015
ATAGTGAG	0.254 ± 0.015
CACATGCA	0.178 ± 0.027
AAGGGGAC	-0.147 ± 0.0055
ACATGCGC	0.117 ± 0.092
AATAAATT	-0.105 ± 0.0048
TGCTATAA	-0.032 ± 0.099
CACCATGG	0.149 ± 0.062
GTAATCTA	-0.186 ± 0.018
ACGCGCTC	0.103 ± 0.02
ATCTACAA	-0.227 ± 0.062
TGAAGTAA	-0.238 ± 0.016
AAAAGATC	-0.145 ± 0.072
ATCAGGAG	-0.187 ± 0.033
AGCGCCAC	0.28 ± 0.042
ACTTAACC	-0.155 ± 0.013
GAGCTCCC	-0.132 ± 0.065
CGGCGACC	-0.12 ± 0.053
AGCTTCAC	0.145 ± 0.072
CTTATTCC	-0.215 ± 0.019
TACCTGGA	0.0222 ± 0.044
ATACAGAC	-0.023 ± 0.01
ATAGAGAC	-0.196 ± 0.012
GTAGATCA	-0.376 ± 0.0041
GAGATAAC	0.0303 ± 0.14

Sequence	PBM E-score of 8-mer
CGAGTAGC	0.0859 ± 0.012
GTAAGTAA	0.0742 ± 0.0078
AAGCACGT	0.0888 ± 0.0074
CGGTCATA	0.0237 ± 0.0059
GCTACTAC	-0.0308 ± 0.027
ATTTGGAC	-0.118 ± 0.068
TAGCAAGA	0.0109 ± 0.034
GCAATCAA	-0.107 ± 0.0026
ATTACCCC	-0.318 ± 0.01
CCGCGACA	0.278 ± 0.013
CTAAATAA	-0.0265 ± 0.026
TACAATGA	-0.215 ± 0.11
GGTGAGGA	0.364 ± 0.018
AATCGCCC	-0.114 ± 0.085
AGGATCAT	-0.151 ± 0.0099
GCGGGGTA	-0.022 ± 0.01
AGCCCGGG	-0.238 ± 0.038
GTCCTGAA	-0.251 ± 0.018
AATCCAGA	-0.143 ± 0.064
ATGCGGCG	-0.0929 ± 0.028
CAGAAGAA	-0.246 ± 0.066
AACTCGTG	0.21 ± 0.0026
AAACTGTT	0.142 ± 0.095
CTGGACAC	-0.0407 ± 0.0061
AACATTCT	-0.0551 ± 0.017

Sequence	PBM E-score of 8-mer
AGCAACTG	0.118 ± 0.023
TCGGACGA	-0.154 ± 0.058
ACTAAAAT	0.0252 ± 0.06
CTATTCCA	0.057 ± 0.068
ATAGGGAA	-0.245 ± 0.013
GGCACTCA	0.127 ± 0.027
ATGGCTCG	-0.0542 ± 0.052
CAGCATGC	-0.237 ± 0.043
CTCACTCA	0.0988 ± 0.04
TGCGCGCA	0.116 ± 0.067
ATCCTTCC	-0.185 ± 0.066
CGACAAGA	0.22 ± 0.0029
CACCGCTG	0.195 ± 0.031
AGAACTAC	-0.0795 ± 0.065
GAAGCCAA	-0.175 ± 0.01
ATTAATGC	-0.296 ± 0.063
CGCAAAGA	0.0523 ± 0.0075
ATGGATCG	-0.226 ± 0.089
GCTGCTCA	-0.108 ± 0.022
CACAAGAG	0.0986 ± 0.032
GAATGCAC	-0.0779 ± 0.019
ACCCGCTC	-0.177 ± 0.05
TAAGATTA	-0.201 ± 0.01
CTCGACGC	0.19 ± 0.017
CCATCTAC	-0.213 ± 0.087

Sequence	PBM E-score of 8-mer
CCAGATGG	-0.00501 ± 0.054
CGGAAATC	-0.0993 ± 0.026
CTGTACAC	-0.0018 ± 0.025
ACGTTCAC	0.227 ± 0.06
ACTATAGC	0.115 ± 0.0036
ACCACCGC	-0.0918 ± 0.0033
CAATTACA	0.01 ± 0.052
CATAGAGA	-0.151 ± 0.0058
CCGGACAG	-0.187 ± 0.068
CCCGCCTC	0.164 ± 0.031
CCCGGAAG	-0.091 ± 0.041
AATGGCAA	0.116 ± 0.0097
AGACGCTA	0.0542 ± 0.021
ATATTAGC	0.08588 ± 0.00027
ATAGCGGC	0.0791 ± 0.018
GGTAGGAC	-0.0864 ± 0.056
AGGTCACG	0.19 ± 0.0059
CCTAGCAC	0.3709 ± 0.0033
AATGACAC	0.355 ± 0.0044
GCGATCAC	0.293 ± 0.0094
AAAAATAT	-0.0496 ± 0.078
GGCTCAAA	-0.162 ± 0.12
CCAACCTC	-0.00881 ± 0.014
ACTCGCCC	-0.192 ± 0.097
CTTGGCGA	0.0849 ± 0.04

Sequence	PBM E-score of 8-mer
AAGAGCTA	-0.27 ± 0.011
AGACCAAC	-0.00326 ± 0.023
CAAGGATG	-0.288 ± 0.0063
CTACATAA	-0.139 ± 0.01
GTTGCAAC	0.095 ± 0.039
CATAGGCC	-0.156 ± 0.031
CCTGGAGC	-0.11 ± 0.017
ACTATTAC	-0.12 ± 0.025
TATAACCA	-0.109 ± 0.057
CTAAAGTC	-0.0791 ± 0.19
ACGGCCGG	-0.0494 ± 0.051
TAAGCGAA	-0.0711 ± 0.04
AATCTTGC	-0.0897 ± 0.1
ACATTTGA	0.038 ± 0.044
GTCAGCAA	0.0448 ± 0.033
ACCATCGA	-0.0672 ± 0.057
AGCCATTA	-0.18 ± 0.022
ACACGTTC	0.337 ± 0.013
TGACATCA	0.0708 ± 0.043
AAGAAACC	-0.194 ± 0.046
TAATTAGA	-0.233 ± 0.033
AATGCCGG	-0.122 ± 0.0097
